Reference: the antibiotic and cytotoxicity screens of Wong et al. (2023)
The other results are listed elsewhere or left out.

What follows are compounds tested on HSkMC (human skeletal muscle cells) (assay: cytotoxicity call (relative viability < 0.9)). Conditions: 10 µM.

Structure (SMILES) | cytotoxicity call
COc1cccc(S(=O)(=O)N2C[C@H](O)COC[C@H]3O[C@@H](CC(=O)N4CCOCC4)CC[C@@H]32)c1 | inactive
C[C@H]1CN([C@@H](C)CO)C(=O)c2cccc(NC(=O)c3ccc(-c4nccs4)cc3)c2O[C@@H]1CN(C)C(=O)Nc1ccc(C(F)(F)F)cc1 | inactive
C[C@@H]1CCCCO[C@@H](CN(C)C)[C@H](C)CN([C@@H](C)CO)C(=O)c2cc(NC(=O)Nc3cccc4ccccc34)ccc2O1 | inactive
C[C@@H]1CCCCO[C@H](CN(C)Cc2ccc(C(F)(F)F)cc2)[C@H](C)CN([C@H](C)CO)C(=O)c2cc(NC(=O)C3CCCCC3)ccc2O1 | inactive
C[C@@H]1CN([C@H](C)CO)C(=O)Cc2cc(NC(=O)Nc3ccccc3)ccc2O[C@H]1CN(C)Cc1ccc(C(=O)Nc2ccccc2N)cc1 | inactive
COCCCOc1cc(C[C@@H](C[C@H](N)[C@@H](O)C[C@H](C(=O)NCC(C)(C)C(N)=O)C(C)C)C(C)C)ccc1OC | inactive
COc1ccc(CN(C)C[C@H]2OCCCC[C@@H](C)Oc3ccc(NC(=O)CCC(F)(F)F)cc3C(=O)N([C@H](C)CO)C[C@@H]2C)cc1 | inactive
CN(C)CCCNC(=O)C[C@@H]1C=C[C@@H](NS(=O)(=O)c2ccccc2)[C@H](CO)O1 | inactive
COc1ccc(NC(=O)N(C)C[C@H]2OCc3cn(nn3)CCCC(=O)N([C@H](C)CO)C[C@H]2C)c(OC)c1 | inactive
COc1ccc(S(=O)(=O)N(C)C[C@@H]2Oc3ccc(NC(=O)Nc4c(C)noc4C)cc3C(=O)N([C@@H](C)CO)C[C@H]2C)cc1 | inactive
O=C(C[C@H]1C=C[C@@H](NC(=O)Cc2ccccn2)[C@H](CO)O1)NCCCN1CCOCC1 | inactive
CC(/C=C/C(=O)NO)=C\c1ccccc1OCc1cn(-c2cccc(N(S(=O)(=O)c3ccc(C)cc3)S(=O)(=O)c3ccc(C)cc3)c2)nn1 | active
CC1(C)O[C@@]2(C)CC[C@@H]1C[C@@H]2O[C@H]1O[C@@H](CO)[C@@H](O)[C@@H](O)[C@@H]1O | inactive
C[C@@H]1CN([C@@H](C)CO)C(=O)c2cccc(NC(=O)Nc3ccc(F)cc3)c2O[C@@H]1CN(C)CC1CCCCC1 | inactive
C[C@H](CO)N1C[C@H](C)[C@H](CN(C)CC2CC2)OCCCC[C@H](C)Oc2ccc(NC(=O)Nc3cccc4ccccc34)cc2C1=O | inactive
COc1ccccc1S(=O)(=O)N(C)C[C@H]1OCc2cn(nn2)CCCC(=O)N([C@@H](C)CO)C[C@@H]1C | inactive
C[C@H](CO)N1C[C@H](C)[C@H](CN(C)Cc2ccc(C(F)(F)F)cc2)Oc2ccc(NC(=O)Cc3ccccc3)cc2C1=O | inactive
CC(C)NC(=O)Nc1ccc2c(c1)C(=O)N([C@H](C)CO)C[C@H](C)[C@@H](CN(C)C(=O)Nc1ccc(C(F)(F)F)cc1)OCCCC[C@H](C)O2 | inactive
Cc1noc(C)c1S(=O)(=O)N(C)C[C@@H]1Oc2ccc(NC(=O)CCC(F)(F)F)cc2CC(=O)N([C@H](C)CO)C[C@@H]1C | inactive
CC(C)NC(=O)N(C)C[C@@H]1Oc2ccc(NC(=O)CCCN(C)C)cc2C(=O)N([C@@H](C)CO)C[C@H]1C | inactive

Structure (SMILES) | cytotoxicity call
C[C@@H]1CN([C@H](C)CO)C(=O)c2cccc(NC(=O)Nc3ccccc3)c2O[C@@H]1CN(C)Cc1ccc(Cl)c(Cl)c1 | inactive
COc1ccc(S(=O)(=O)Nc2ccc3c(c2)CC(=O)N([C@@H](C)CO)C[C@H](C)[C@H](CN(C)C(=O)Nc2c(C)noc2C)O3)cc1 | inactive
C[C@H](CO)N1C[C@H](C)[C@@H](CN(C)Cc2ccccn2)Oc2ncc(C#Cc3ccc(F)cc3)cc2C1=O | inactive
CCc1c(C)[nH]c2c(C#N)cnn2c1=O | inactive
C[C@@H]1CN([C@@H](C)CO)C(=O)c2cc(NC(=O)Nc3ccc4c(c3)OCO4)ccc2O[C@@H]1CN(C)S(=O)(=O)c1cn(C)cn1 | inactive
COc1ccc(S(=O)(=O)N(C)C[C@H]2OCc3cn(nn3)CCCC(=O)N([C@@H](C)CO)C[C@@H]2C)cc1 | inactive
C[C@H]1CCCCO[C@H](CN(C)C(=O)Cc2ccccc2)[C@@H](C)CN([C@@H](C)CO)C(=O)c2cc(NS(=O)(=O)c3ccc(F)cc3)ccc2O1 | inactive
CNC[C@@H]1OCCCC[C@@H](C)Oc2ccc(NS(=O)(=O)c3c(C)noc3C)cc2C(=O)N([C@H](C)CO)C[C@@H]1C | inactive
C[C@@H]1COC(=O)[C@H](Cc2ccc(F)cc2)CC=CC[C@@H](CC(=O)N(CCO)Cc2ccccc2)C(=O)N1 | inactive
C[C@H]1CN([C@@H](C)CO)C(=O)CCCn2cc(nn2)CO[C@H]1CN(C)C(=O)Nc1cccc2ccccc12 | inactive
O=C1O[C@H](c2ccccc2)[C@H](c2ccccc2)N2[C@H]1[C@@H](C(=O)N1CCCCCCC1)[C@]1(C(=O)Nc3ccccc31)[C@H]2c1ccc(O)cc1 | active
Cc1ccccc1S(=O)(=O)N1C[C@@H](O)COC[C@@H]2O[C@H](CC(=O)NCCc3ccncc3)CC[C@H]21 | inactive
CCO[C@@H]1OC(=O)C[C@@H]1NC(=O)[C@@H]1CCCN1C(=O)[C@@H](NC(=O)c1ccc(N)c(Cl)c1)C(C)(C)C | inactive
O=S(=O)([O-])NC1CCCCC1.[Na+] | inactive
CO[C@H]1CN(C)C(=O)c2cc(NC(=O)Nc3cccc(F)c3)ccc2OC[C@@H](C)N(C(=O)Nc2c(C)noc2C)C[C@H]1C | inactive
C[C@@H]1CN([C@H](C)CO)C(=O)Cc2cc(NC(=O)Cc3cn(C)c4ccccc34)ccc2O[C@@H]1CN(C)S(=O)(=O)c1cn(C)cn1 | inactive
C[C@@H]1CN([C@H](C)CO)C(=O)Cc2cc(NC(=O)Cn3cnnn3)ccc2O[C@@H]1CN(C)Cc1ccc(-c2ccccc2)cc1 | inactive
C[C@H](CO)N1C[C@H](C)[C@@H](CN(C)C(=O)Nc2ccc3c(c2)OCO3)OCCCC[C@H](C)Oc2ccc(NC(=O)Nc3ccc(C(F)(F)F)cc3)cc2C1=O | inactive
C[C@H](CO)N1C[C@H](C)[C@H](CN(C)S(C)(=O)=O)Oc2ccc(NS(=O)(=O)c3ccc(Cl)cc3)cc2CC1=O | inactive
C[C@@H]1CN([C@H](C)CO)C(=O)c2cccc(NS(=O)(=O)c3cn(C)cn3)c2O[C@H]1CN(C)Cc1ccncc1 | inactive
